# Measured values as given in PubChem BioAssay AID1454 (National Center for Advancing Translational Sciences (NCATS), 2008).
# About 550 (0.42%) of roughly 130,000 compounds were called active. Inconclusive results, whose numbers are uncertain, are shown with a selection of clear calls. Calls come from the whole dose curve; as a rule, active = well fitted inhibition curve with a large enough effect; inconclusive = small, poorly fitted or top-dose-only effect, or effect the other way; inactive = flat fitted curve, though single readings scatter. Potencies of inconclusive entries are left out as doubtful fits.
# Assay: qHTS Assay for Inhibitors of the ERK Signaling Pathway using a Homogeneous Screening Assay; Stimulation with EGF; note: nearly all actives have a fitted effect of over 55% in size
# Conditions: HEK293-V1b, EGF-stimulated phospho-ERK AlphaScreen
# Summary of the method: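 HEK293 cells stably expressing V1b receptor, serum-reduced (1% FBS) overnight, pretreated 30 min with compound, then stimulated 5 min with 25 nM EGF; phospho-ERK detected by AlphaScreen SureFire. AC50 from Hill fits, normalized to DMSO and EGF.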
# Potency is the fitted concentration of half-maximal effect; tags give direction and shape of the fitted curve.
row,Compound,Potency
1,CCOC(=O)c1cnc2c(OC)cccc2c1N1CCN(c2ccccn2)CC1,"inconclusive [inhibitor, single point]"
2,C/C(=N/OCO/N=C(\C)c1ccccc1)c1ccccc1,"inconclusive [activator, single point]"
3,CCOc1cc(/C=C2/SC(=S)N(CC(=O)O)C2=O)ccc1OC(=O)c1cccs1,"inconclusive [inhibitor, single point]"
4,CCCc1nc(SCC(=O)c2ccc(F)cc2)c2ccccc2n1,"inconclusive [inhibitor, single point]"
5,COC(=O)c1ccc2nc(C)cc(Nc3ccc(N(C)C)cc3)c2c1,"inconclusive [inhibitor, single point]"
6,CCOC(=O)/C(C#N)=N/Nc1ccc(S(=O)(=O)N2CCc3ccccc32)cc1,"inconclusive [inhibitor, single point]"
7,CC(c1ccon1)N(C)Cc1cn(Cc2ccccc2)nc1-c1ccc2c(c1)OCO2 (configuration not stated),inactive
8,CN(C)c1cccc2c1C(=O)c1ccccc1C2=O,active: 12.6 µM
9,CCOc1cc(CNCc2cccnc2)ccc1OCC(=O)NC(C)(C)C,inactive
10,CC1CC[C@@]2(C(=O)O)CC[C@]3(C)C(=CCC4[C@@]5(C)CCC(O)C(C)(C)C5CC[C@@]43C)C2C1C (some centres not stated),inactive
11,C/C(N)=C(/C#N)C(=O)CSc1nn(-c2ccc(Cl)cc2)c(=S)s1,"inconclusive [inhibitor, single point]"
12,COc1ccccc1/C=C/C(=O)/C=C/c1ccccc1O,active: 35.5 µM
13,Cc1cc(C)c2cccc(N)c2n1,inactive
14,CC1(C)COC(/C=C/c2cccc([N+](=O)[O-])c2)=N1,"inconclusive [activator, partial curve]"
15,O=C1C(Cl)=C(Nc2ccccc2)C(=O)c2ccccc21,"inconclusive [inhibitor, full curve]"
16,CCN=c1scc(-c2cccs2)n1/N=C/c1cc(OC)ccc1O,"inconclusive [inhibitor, partial curve]"
17,CCOC(=O)c1ccc(NC(=S)N2CCSC2c2c(F)cc(F)cc2F)cc1 (configuration not stated),"inconclusive [inhibitor, single point]"
18,Cc1ccc(/C=N/NC(=O)c2ccccc2OCc2cccc(Br)c2)o1,active: 22.4 µM
19,CC1=NN(C(=O)c2ccc(Br)cc2)C(O)(c2ccccc2)C1 (configuration not stated),"inconclusive [inhibitor, full curve, poor fit]"
20,CO/N=C/c1ccc(Oc2ccc(C)cc2)c([N+](=O)[O-])c1,"inconclusive [inhibitor, single point]"
21,CN(C)c1cc(-c2ccc(Cl)cc2Cl)oc(=O)c1Cl,"inconclusive [inhibitor, partial curve]"
22,O=C(c1ccccc1)N(C1=NCCCCS1)c1ccccc1,inactive
23,Cc1ccn2cc(-c3cccc(NC(=O)c4ccccc4)c3)nc2c1,"inconclusive [inhibitor, single point]"

row,Compound,Potency
1,CC(C)(C)c1ccc(/C=C/C(=O)Nc2ccncc2)cc1,"inconclusive [inhibitor, single point]"
2,CCC(C)(C)C(=O)O[C@@H]1C[C@H](C)C=C2C=C[C@H](C)[C@@H](CC[C@H]3C[C@@H](O)CC(=O)O3)[C@H]21,inactive
3,CCN1C(=O)/C(=C\C=C\c2ccccc2[N+](=O)[O-])SC1=S,"inconclusive [inhibitor, partial curve, poor fit]"
4,Cc1ccc(/C=N/NC(=O)c2nnn(-c3nonc3N)c2CSc2ccc(Cl)cc2)cc1,"inconclusive [inhibitor, single point]"
5,Cn1cccc1C(=O)N1CCC2(CCCN(c3ccccn3)C2)CC1,inactive
6,CC(C)C1C(C#N)=C(N)Oc2n[nH]c(-c3ccccc3)c21 (configuration not stated),"inconclusive [inhibitor, single point]"
7,O=C(COc1ccc(/C=C\[N+](=O)[O-])cc1)N1CCOCC1,"inconclusive [inhibitor, single point]"
8,Cc1cccc(N2CCC(NCc3c(C(=O)N4CCCCC4)nc4c(C)cccn34)CC2)c1,"inconclusive [inhibitor, single point]"
9,CC(C)(C)c1ccccc1OCCOCCNCc1ccccc1,"inconclusive [inhibitor, single point]"
10,CCOc1ccc(NC(=O)/C=C/c2ccccc2)c([N+](=O)[O-])c1,"inconclusive [inhibitor, partial curve, poor fit]"
11,O=[N+]([O-])C(=c1ccc2c(c1)N1C3=C(CCCC3)CC3CCCCC31N=2)[N+](=O)[O-] (configuration not stated),"inconclusive [inhibitor, partial curve]"
12,N#CC1=C(Nc2ccccc2Cl)SC(c2ccccc2O)NC1=O (configuration not stated),"inconclusive [inhibitor, single point]"
13,S=c1sc(SCCOc2ccccc2)nn1-c1ccccc1,"inconclusive [activator, partial curve, poor fit]"
14,C[n+]1ccc(/C=N/Nc2nc(Cl)c(C#N)c(Cl)c2Cl)cc1,"inconclusive [inhibitor, partial curve]"
15,CCCN1C(=O)/C(=C\C=C2\N(CC)c3ccccc3C2(C)C)SC1=S,"inconclusive [inhibitor, full curve]"
16,COc1ccc(-n2nc([N+](=O)[O-])c(=NC3CCN(Cc4ccccc4)CC3)n2O)cc1,"inconclusive [inhibitor, single point]"
17,CC1CC1C(=O)OCC(=O)Nc1ccc(N=Nc2ccccc2)cc1 (configuration not stated),active: 20 µM
18,COC(=O)[C@@]1(Cc2ccc(OC)cc2)[C@H]2c3cc(C(=O)N(C)C)n(CCc4ccc(O)c(OC)c4)c3C[C@H]2CN1C(=O)c1ccccc1,inactive
19,CC1(C)S[C@@H]2[C@H](NC(=O)C(N)c3ccccc3)C(=O)N2[C@H]1C(=O)O (some centres not stated),inactive
20,COc1cc(/C=C2/C(=O)NN(c3cccc(F)c3)C2=O)ccc1OC(=O)c1ccco1,"inconclusive [inhibitor, single point]"
21,COc1ccc(C(=O)NCCN2CCOCC2)c(OC)c1OC,inactive
22,CC[n+]1ccc(/C=C/c2ccc(N(C)C)cc2)c2ccccc21,active: 14.1 µM
23,COc1cc(C(=O)NNc2nc3cc4c(cc3s2)OCO4)cc(OC)c1OC,inactive

row,Compound,Potency
1,C=CCn1c(SCc2ccc(C(=O)Nc3nccs3)cc2)nnc1-c1ccc(C)c(Cl)c1,"inconclusive [inhibitor, partial curve]"
2,CCCCCCCC/C=C\CCCCCCCC(=O)NCCc1ccc(O)c(O)c1,"inconclusive [inhibitor, single point]"
3,O=C(c1ccccc1)c1ccc(OCC(O)CN2CCCC2)cc1 (configuration not stated),"inconclusive [activator, partial curve]"
4,CN(C)c1ccc(NC(=O)Nc2csc3ccccc23)cc1,"inconclusive [inhibitor, single point]"
5,Nc1ccc(N2CCN(c3ccccc3)CC2)c(F)c1,"inconclusive [inhibitor, partial curve, poor fit]"
6,CSc1nc(C(=O)N2CCc3c([nH]c4ccccc34)C2c2ccccn2)cs1 (configuration not stated),"inconclusive [inhibitor, partial curve]"
7,COc1ccc(N2CCN(Cc3nc4scc(-c5ccccc5)c4c(=O)[nH]3)CC2)cc1,"inconclusive [inhibitor, partial curve]"
8,Cc1nn(Cc2ccc(C(=O)Nc3ccccc3F)cc2)c(C)c1Cl,"inconclusive [activator, partial curve]"
9,O=[N+]([O-])c1cc(/C=N/N2CCN(Cc3ccccc3)CC2)ccc1Cl,"inconclusive [inhibitor, partial curve]"
10,O=C(CSc1nnc(-c2ccc(F)cc2)c2ccccc12)NCC1CCCO1 (configuration not stated),inactive
11,Oc1ccc2c(c1)OCC1(O)Cc3cc(O)c(O)cc3C21 (configuration not stated),"inconclusive [inhibitor, partial curve, poor fit]"
12,COc1cc(C(=O)NC2CCCNC2)cc(OC)c1OC (configuration not stated),"inconclusive [inhibitor, single point]"
13,COC(=O)C1C(c2ccccc2)C(C(=O)OCc2ccco2)C1c1ccccc1 (configuration not stated),"inconclusive [activator, single point]"
14,CN(Cc1nc(-c2cnccn2)no1)Cc1n[nH]c2c1CCCCC2,inactive
15,COc1cc(NC(=O)c2cc(-c3cccnc3)nc3ccc(Br)cc23)cc(OC)c1,inactive
16,O=C(Nc1ccccc1)N1CC[C@@]2(CCCN(C(=O)c3cnccn3)C2)C1,inactive
17,COc1ccc(C(C)=O)cc1CN1C(=O)NC2(CCCC2)C1=O,"inconclusive [inhibitor, full curve, poor fit]"
18,O=C(c1ccc(S(=O)(=O)N2CCCCC2)cc1)N1CCN(CCN2C(=O)c3cccc4cccc(c34)C2=O)CC1,"inconclusive [inhibitor, single point]"
19,COc1ccc(Nc2nc(N)nc(CSC(=S)N3CCCCC3C)n2)cc1 (configuration not stated),"inconclusive [inhibitor, partial curve]"
20,CCOc1cc(CNCCSc2nnnn2C)cc(Br)c1OCc1ccc(F)cc1,"inconclusive [inhibitor, single point]"
21,O=C1C=CC(=O)N1c1ccc(Sc2ccc([N+](=O)[O-])cc2)cc1,"inconclusive [inhibitor, single point]"
